Source: PubChem BioAssay AID1240 (Sanford-Burnham Center for Chemical Genomics, 2008)
Hit rate of the full screen: of about 50,000 compounds, about 800 (1.6%) showed an effect of 50% or more. This is one part of the list.

target: Bcl-2-like protein 10 (Homo sapiens) (UniProt Q9HD36); assay: Phenotype converters, Bcl-B/TR3 peptide binding displacement, primary biochemical FP (AID 1240); conditions: GST-Bcl-B / FITC-TR3 peptide fluorescence polarization; stronger effect = higher value; compound at 3.75 mg/L;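 note: 0% = Bcl-B with tracer peptide and DMSO and 100% = tracer peptide lacking Bcl-B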
Sequence of UniProt Q9HD36 (Q9HD36 whole entry, looked up): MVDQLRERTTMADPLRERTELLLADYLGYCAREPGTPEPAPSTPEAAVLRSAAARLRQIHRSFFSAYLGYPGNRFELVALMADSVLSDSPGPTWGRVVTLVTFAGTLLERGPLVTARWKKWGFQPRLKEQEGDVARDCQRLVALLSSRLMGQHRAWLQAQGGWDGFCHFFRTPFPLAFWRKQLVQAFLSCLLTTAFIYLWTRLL

SMILES | displacement
CCOC(=O)C1=C(C)N(C)C(=O)NC1c1ccc2c(c1)OCO2 (configuration not stated) | -3.5%
Cc1c(NC(=O)c2ccc(OCC(C)C)cc2)cccc1-c1nc2ncccc2o1 | 1.5%
CCOC(=O)C1=C(C)NC(=S)NC1c1ccc(OC(=O)c2ccco2)cc1 (configuration not stated) | 11.7%
CC(C)(C)c1ccc(/C=C/C(=O)NCc2ccccc2)cc1 | -8.7%
Cc1ccnc(NC(=O)c2ccc(C)o2)c1 | -3.2%
CCN(CC)c1ccc(/C=N\NC(=O)c2cccc3cc[nH]c23)cc1 | -2.5%
O=C(COc1cccc(Cl)c1)NCCc1nc2ccccc2[nH]1 | -6%
O=C(CCC(=O)Nc1ccccc1)NCCO | -0.1%
O=C(ON=C1c2ccccc2-c2ccccc21)c1ccccc1F | 5.3%
CC1=C(C(=O)Nc2ccc(Cl)cc2)C(c2ccc(F)cc2)NC(=S)N1 (configuration not stated) | -8.6%
COc1ccc(S(=O)(=O)n2nnc3ccccc32)cc1OC | 2.8%
Cc1ccc(C(C)(C)C)c(OCC(=O)Nc2ccccc2C(F)(F)F)c1 | -0.6%
Cc1cc(C)n(-c2nc3nonc3nc2Nc2cccc(C)c2C)n1 | -42.2%
Cc1c(C(=O)OC(C)C)sc(NC(=O)COc2ccc(Cl)cc2)c1C(N)=O | 30.4%
COc1ccc(CC(=O)O/N=C(\N)c2ccccn2)cc1OC | 11%
O=C(COc1ccc([N+](=O)[O-])cc1)Nc1cccc2ccccc12 | 10.1%
O=C(Nc1ccc([N+](=O)[O-])cn1)C1CC1c1ccccc1 (configuration not stated) | -1.9%
Cc1ccc(NC(=O)c2ccc3c(c2)OCCO3)c([N+](=O)[O-])c1 | 8.1%
COc1ccc(N2C(=O)c3ccccc3NC2c2ccc(OC)c(Cn3nc(C)c([N+](=O)[O-])c3C)c2)cc1 (configuration not stated) | 6.3%
CCc1cc2c(cc1C(C)O)OCCO2 (configuration not stated) | -13.4%
C(=N\n1cnnc1)/c1ccc(Sc2nnnn2-c2ccccc2)o1 | -10.9%
COc1ccc(C2CC(=O)C3=C(C2)Nc2ccccc2NC3c2ccc3ccccc3c2)cc1 (configuration not stated) | -2.3%
CCOn1c(=O)c(-c2ccccc2)[n+]([O-])c2ccccc21 | 18.9%

SMILES | displacement
Cc1ccc(S(=O)(=O)Nc2c(C)cc(O)c(Br)c2C)cc1 | 3.9%
CS(=O)(=O)N(CC(=O)Nc1cccc(C(F)(F)F)c1)c1ccc(Cl)cc1 | 2.3%
CCCOc1cccc(C(=O)Nc2ccc(C)cc2[N+](=O)[O-])c1 | 9.5%
O=C(NCCO)C(=O)Nc1cccc(C(F)(F)F)c1 | 12.4%
O=C(N/N=C/c1ccc(Cl)cc1Cl)c1c[nH]c2ccccc12 | 15.1%
O=C(Nc1cccc(-c2nc3ccccc3[nH]2)c1)c1ccc2c(c1)OCCO2 | 11.6%
COc1ccc(N2C(=O)/C(=C/c3cn(Cc4ccccc4)c4ccccc34)C(=O)NC2=S)cc1 | 25%
COc1ccc(-c2nnnn2C)cc1S(=O)(=O)NCCc1ccccc1 | 17.1%
FC(F)(F)c1ccc(-c2nnc3ccc4ccccc4n23)cc1 | -8%
CC1=C(C#N)C(c2ccccc2Br)C2=C(CC(c3ccccc3)CC2=O)N1 (configuration not stated) | 1.5%
Cc1csc(NC(=O)c2ccc(Cl)cc2[N+](=O)[O-])n1 | 11.8%
CC(=O)Nc1c(-c2ccc(C)cc2)nc2ccc(Cl)cn12 | 6.3%
N/C(=N\OC(=O)c1ccc(F)cc1)c1cccnc1 | 4.4%
Cc1cccc(N=Cc2c(O)n(-c3ccccc3F)c(=O)[nH]c2=O)c1 | -2.6%
CN(C)c1ccc(/C=N/NC(=O)CNC(=O)c2ccncc2)cc1 | 7.3%
COC(=O)c1c(N)sc(C)c1-c1ccc(C)c(C)c1 | -6.9%
O=C(O)C(NC(=O)c1ccccc1)=C1CCCCC1 | 3.2%
CNC(=O)c1c(NC(C)=O)sc2c1CCCCC2 | -14%
CCOC(=O)C(CCCCCOc1ccccc1F)C(=O)OCC | 8.4%
N/C(=N\OC(=O)c1ccc(Cl)cc1Cl)c1cccnc1 | -2.9%
COc1cc(/C=C2\N=C(c3ccc(F)cc3)OC2=O)ccc1OC(=O)c1ccccc1Cl | 12.2%
CCc1cc(=O)oc2cc(OCc3ccc(Br)cc3)ccc12 | -3.9%
O=C(CC(c1ccccc1)c1ccccc1)Nc1ccc2c(c1)OCO2 | -4.4%

SMILES | displacement
COc1cccc2cc(C(C)=O)c(=O)oc12 | 14.4%
Cn1ccc(C(=O)OCC(=O)c2ccccc2)n1 | 13.8%
COc1ccc(NC(=O)c2ccc(OC)c(OC)c2)cc1Cl | 20.4%
Cc1ccc(-c2c(C#N)c(N)nc3c2CCCC3)s1 | -0.6%
CCOC(=O)c1ccc2c3c(onc13)-c1ccccc1C2=O | 120%
N#C/C(=C\c1cccs1)c1nc2ccccc2s1 | -12.5%
COC(=O)C1=C(C)NC2=C(C(=O)CCC2)C1c1ccc(OCc2ccc(Cl)cc2)c([N+](=O)[O-])c1 (configuration not stated) | -0.1%
Cc1cc(Cl)ccc1OCC(=O)Nc1ccc(OC(F)(F)F)cc1 | 2.8%
O=C(/C=C/c1cccc([N+](=O)[O-])c1)c1ccc2c(c1)OCCO2 | 11.9%
COc1cc(C2NC(=O)NC(C)=C2C(=O)OCc2ccc3c(c2)OCO3)cc(Br)c1O (configuration not stated) | 14.1%
CC(=O)Nc1cc(C(F)(F)F)cc(C(F)(F)F)c1 | -7.4%
COc1cc(C(=S)N2CCOCC2)ccc1OC(=O)c1ccccc1 | 11.2%
CC1CCc2c(sc(NC(=O)c3cncc(Br)c3)c2C(N)=O)C1 (configuration not stated) | 18.5%
O=C(Nc1ccccc1)Nc1nc(C(c2ccccc2)c2ccccc2)cs1 | 0.5%
Nc1nonc1C(=O)OCc1ccccc1 | 10.5%
O=C(Nc1cc(C(F)(F)F)ccc1Cl)c1ccc(Cl)cc1Cl | -1.2%
CCOc1cccc2c1N(C(=O)c1ccccc1)C(C)(C)C(=S)C2=C1SC(C(=O)OC)=C(C(=O)OC)S1 | 0.3%
CC(=O)c1ccc(NC2=C(Cl)C(=O)c3ccccc3C2=O)cc1 | 4.5%
COc1ccccc1C(=O)NN1C(=O)/C(=C/c2ccc([N+](=O)[O-])cc2)SC1=S | -2%
O=C(CC12CC3CC(CC(C3)C1)C2)Nc1nccs1 | 3.9%
Cn1c2ccccc2c2cc(C3Nc4ccccc4C(=O)N3Cc3ccccc3)ccc21 (configuration not stated) | 7%
Cc1ccc(C(=O)N/C(=C\c2ccco2)c2nc(=S)[nH][nH]2)cc1 | 2.3%
Cc1ccc(NC(=O)CN2CCN(CCN=CC3=C(O)CC(C)(C)CC3=O)CC2)cc1 | -9.3%

SMILES | displacement
O=C(Nc1cccc2ccccc12)C1(c2ccccc2)CC1(Cl)Cl (configuration not stated) | -1.2%
O=C(Nc1cc(Cl)cc(Cl)c1)c1cc2ccccc2o1 | 0.8%
Cc1ccc(C(C)(C)C)cc1C(=O)c1ccc([N+](=O)[O-])cc1 | 11.4%
O=c1[nH]c(=O)n(-c2ccccc2Cl)c(O)c1C=C1C=CC=N1 | 11.5%
COc1ccc(C(=O)N2CCNCC2)cc1OC | -13.1%
O=S(=O)(Nc1cccc(I)c1)c1ccccc1 | -2.7%
CCc1cccc(C)c1NC(=O)C1CC=CCC1C(=O)O (configuration not stated) | -8.5%
Cc1c(-c2nc(-c3cccnc3)no2)cccc1[N+](=O)[O-] | 2.4%
COc1ccc(C2C(C(C)=O)=C(O)C(=O)N2c2nc3ccccc3s2)cc1 (configuration not stated) | -1%
O=Nc1c(O)c2ccccc2c2ccc([N+](=O)[O-])cc12 | 1.6%
Cc1ccc(-n2nc3ccc(NC(=O)COc4ccccc4[N+](=O)[O-])cc3n2)cc1Cl | 4.1%
CCOc1ccc(NC(=O)c2ccccc2C(F)(F)F)cc1 | 5.2%
Cc1ccc(OCCOCCOc2ccc(Br)cc2/C=C2/SC(=S)NC2=O)cc1 | -15.3%
O=[N+]([O-])c1cccc(/C=N\N2CCN(C(c3ccccc3)c3ccccc3)CC2)c1 | 2.8%
CC1=C(C(=O)OCCc2ccccc2)C(c2ccc([N+](=O)[O-])cc2)C2=C(CC(C)(C)CC2=O)N1 (configuration not stated) | -4.4%
C#CCOC(=O)/C=C/c1cccc([N+](=O)[O-])c1 | -7.5%
C/C(CCc1ccc2c(c1)OCO2)=N\N=C1/NC(=O)CC(C(=O)NCCc2ccc(S(N)(=O)=O)cc2)S1 (configuration not stated) | 2.4%
CCCCN(CCCC)CCCCSc1ccc(O)cc1 | -39%
Cc1ccc(OCCCCCSC#N)cc1C | 5.8%
COc1ccc(/C=N/NC(=O)c2nonc2C)cc1 | 3.1%
COC1CCCCC1N1CCN(C(=O)c2ccccc2)CC1 (configuration not stated) | -3.5%
COc1ccc(CC(=O)c2ccc(OC)c(OC)c2)cc1OC | 8.8%
Cc1cc(Cl)ccc1OCC(O)CN1CCN(CCO)CC1 (configuration not stated) | -0.3%

SMILES | displacement
CCC(=O)Nc1ccc(O)c(-c2nc3cc(C)c(C)cc3o2)c1 | -7%
C/C(=N\Nc1nc(C)cc(-c2ccccc2)n1)c1cccc(N)c1 | -15.5%
O=c1/c(=C/c2cc(Cl)ccc2OCc2ccccc2Cl)sc2nc3ccccc3n12 | -1.9%
O=C(NCC(=O)c1ccccc1)SCc1ccccn1 | -12.9%
COc1ccc(C2SCCN2C(=O)c2cc3ccccc3oc2=O)cc1 (configuration not stated) | -0.4%
Cc1ccc2cc(C3=C/C(=C/c4ccccn4)C(=O)O3)ccc2c1 | 12.2%
O=C(C[n+]1cc(Br)cc(Br)c1)c1ccc(Cl)cc1 | 4.2%
O=C(NCc1cccnc1)c1ccc(C#CC2(O)CCCCC2)cc1 | -9.5%
O=C1OC(c2ccccc2)=C/C1=C\c1c(Cl)cccc1Cl | -5.8%
COc1ccc(NC(=O)CC2CCC2)cc1 | 17%
COc1ccccc1N(CC(=O)N/N=C\c1c(O)ccc2ccccc12)S(=O)(=O)c1ccccc1 | -22.8%
COc1cc(-c2noc(-c3ccccc3C)n2)cc(OC)c1OC | 10%
CCOc1cc(C(=O)NC2CCSC2=O)cc(OCC)c1OCC (configuration not stated) | 4.4%
COc1ccc2c(c1)OC(O)(C(F)(F)C(F)F)CC2=O (configuration not stated) | -1.7%
Cc1c(C(=O)OC(C)C)sc(NC(=O)c2cnccn2)c1C(=O)OC(C)C | -5.6%
CN(C)c1ccc(NC(=O)COc2ccccc2)cc1 | 3.2%
O=C(c1cccc(Nc2nc(-c3ccccc3)c3cc(Br)ccc3n2)c1)N1CCOCC1 | 11.1%
O=C(CCC(=O)N1CCN(Cc2ccccc2)CC1)N1CCOCC1 | 0.1%
Cc1ccc(Cl)cc1NC(=O)C(C(C)C)N1C(=O)c2ccccc2C1=O (configuration not stated) | -5.7%
CCOC(=O)C1=NNC(C(=O)c2ccccc2)C1c1ccc(Br)cc1 (configuration not stated) | -3.2%
